Screen size: about 310,000 compounds; about 2,200 (0.71%) showed an effect of 50% or more. The effect is printed as a negative number. This is one part of the list.
The compounds below were run against human ether-à-go-go-related gene (hERG) potassium channel (human, UniProt Q12809) (assay: primary screen, population patch clamp on CHO cells stably expressing hERG).
Chain of human ether-à-go-go-related gene (hERG) potassium channel (Q12809 whole entry, looked up): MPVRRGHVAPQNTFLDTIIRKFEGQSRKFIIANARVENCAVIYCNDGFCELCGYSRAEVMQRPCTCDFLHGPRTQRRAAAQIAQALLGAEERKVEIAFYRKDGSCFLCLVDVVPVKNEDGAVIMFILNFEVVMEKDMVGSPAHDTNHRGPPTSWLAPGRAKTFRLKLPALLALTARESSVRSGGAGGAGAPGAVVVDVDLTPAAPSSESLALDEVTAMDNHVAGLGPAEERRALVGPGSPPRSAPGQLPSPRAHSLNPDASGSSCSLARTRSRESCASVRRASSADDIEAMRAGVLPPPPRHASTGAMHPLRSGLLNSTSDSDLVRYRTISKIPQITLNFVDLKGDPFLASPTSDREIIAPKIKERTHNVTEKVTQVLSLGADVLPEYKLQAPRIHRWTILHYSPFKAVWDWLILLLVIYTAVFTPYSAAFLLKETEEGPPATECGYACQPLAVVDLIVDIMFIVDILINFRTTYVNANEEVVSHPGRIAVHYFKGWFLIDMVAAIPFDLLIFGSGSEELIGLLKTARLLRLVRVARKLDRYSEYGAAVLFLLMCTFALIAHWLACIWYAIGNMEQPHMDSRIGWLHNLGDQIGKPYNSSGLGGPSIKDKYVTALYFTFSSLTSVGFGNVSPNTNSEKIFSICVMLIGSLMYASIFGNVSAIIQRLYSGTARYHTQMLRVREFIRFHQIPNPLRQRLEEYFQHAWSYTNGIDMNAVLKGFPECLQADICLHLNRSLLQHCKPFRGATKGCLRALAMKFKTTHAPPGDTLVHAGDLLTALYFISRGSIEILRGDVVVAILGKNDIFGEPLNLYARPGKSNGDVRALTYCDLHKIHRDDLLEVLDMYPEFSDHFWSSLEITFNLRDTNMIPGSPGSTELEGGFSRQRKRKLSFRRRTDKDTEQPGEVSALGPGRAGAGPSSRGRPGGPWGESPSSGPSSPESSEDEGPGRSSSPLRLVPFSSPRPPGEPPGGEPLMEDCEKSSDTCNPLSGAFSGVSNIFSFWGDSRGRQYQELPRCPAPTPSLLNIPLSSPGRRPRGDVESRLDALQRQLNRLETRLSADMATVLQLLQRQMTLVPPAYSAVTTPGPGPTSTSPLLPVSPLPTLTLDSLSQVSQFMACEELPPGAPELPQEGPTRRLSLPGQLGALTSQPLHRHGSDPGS

SMILES | hERG current change (%, negative = inhibition) at 1uM
CCOC(=O)c1ccc(NC(=O)CSc2nnc(C3CCCCC3)n2C)cc1 | 11.9%
Cc1cc(NC(=O)CN2CCC(n3nnc4cc(C(F)(F)F)ccc43)CC2)no1 | -17.6%
Cc1ccc2c(c1)C(c1ccc(F)cc1)N(C(=O)C1CC1)CC(=O)N2 (stereo not shown) | 8.88%
CCC(=O)NC(=S)Nc1cccc(NC(=O)c2ccco2)c1 | 16.9%
O=C(Nc1cccc(-c2nnc(-c3ccco3)o2)c1)C(c1ccccc1)c1ccccc1 | 15.6%
Cc1ccccc1C(=O)NC1CCN(C(=O)Nc2ccc(F)cc2)CC1 | 5.39%
COc1ccc(C(=O)N(Cc2cccs2)C2CCS(=O)(=O)C2)cc1 (stereo not shown) | 15.6%
O=C(OCC(=O)N1CCN(c2ccccc2)CC1)c1ccc(O)cc1O | 11.1%
Cc1cc(C)cc(N(C(=O)CNS(=O)(=O)c2ccccc2)C(C(=O)NCc2ccccc2)c2ccc(C)o2)c1 (stereo not shown) | 14.4%
O=C(COC(=O)c1ccccc1NC(=O)c1ccco1)NCC1CCCCC1 | 11.9%
Cc1cc(C)cc(C(=O)NC(CC(N)=O)c2ccc(N3CCCCCC3)c([N+](=O)[O-])c2)c1 (stereo not shown) | 16%
C/C=C(\C)C(=O)NCCN1C2=NC[C@H](C(C)C)N2C[C@H]1Cc1ccc(O)cc1 | 29.8%
Cc1cc(N2CCCC2)n2nc(C)nc2n1 | 4.06%
O=C(NC1CCCCCCC1)c1cc(F)c(F)cc1Cl | 4.43%
CS(=O)(=O)c1cccc(C(=O)Nc2ccc3c(c2)OCCCO3)c1 | 16.4%
Cc1cccc(NC(=O)c2cccc(N3C(=O)C4CCC(C)CC4C3=O)c2)c1C (stereo not shown) | 9.05%
CCOC(=O)CC1CCCCN1C(=O)CCCn1nnnc1CN1CCOCC1 (stereo not shown) | 16.2%
COc1ccc(-c2ccc(C(=O)C3CC3)cc2)cc1 | 14.5%
COc1cc(C)ccc1N(CCCN1C(=O)c2cccc3cccc(c23)C1=O)C(=O)c1cccs1 | -3.71%
O=C(c1cc(-c2cccnc2)nc2ccc(Br)cc12)N1CCN(c2ncccn2)CC1 | 6.94%
CCC(C)Nc1cc(C)nc2ncnn12 (stereo not shown) | 33.9%
CC(=O)Nc1ccc(NC(=O)COc2cccc3c2OC(C)(C)C3)cc1 | 5.21%

SMILES | hERG current change (%, negative = inhibition) at 1uM
CCCCn1c(SCc2ccccn2)nc2c1c(=O)n(C)c(=O)n2C | 2.76%
Cc1sc(N2C(=O)C3C4C=CC(C4)C3C2=O)c(C#N)c1C (stereo not shown) | 4.76%
CN(C)C=C1C(=O)c2ccccc2C1=O | 11.5%
N#Cc1c(SCC(=O)OCc2ccccc2)nsc1SCC(=O)OCc1ccccc1 | 7.73%
O=C(COc1ccc(Br)cc1CO)Nc1ccc(F)cc1 | 5.08%
COc1cc(/C=N/OCC(=O)NC2CCS(=O)(=O)C2)ccc1OC(F)F (stereo not shown) | 3.92%
O=C(CCC(=O)N1CCOc2ccc(Cl)cc21)NCc1ccccc1 | 7.62%
CCCN(CCC)S(=O)(=O)c1ccc(C(=O)Nc2nnc(-c3cc(OC)cc(OC)c3)o2)cc1 | 5.23%
O=C(NCC(=O)N1CCCC(C(F)(F)F)C1)c1ccc(Oc2ccccc2)cc1 (stereo not shown) | 10%
O=C(CSc1nnc(Cc2cc(=O)[nH]c(=O)[nH]2)n1-c1ccc(F)cc1)N1CCCCC1 | 12.5%
O=C(Cc1ccc(Cl)cc1)Nc1ccc(S(=O)(=O)Nc2ncccn2)cc1 | 13.9%
COc1ccc(-c2nnc(SC3CCOC3=O)n2C2CCCCC2)cc1OC (stereo not shown) | 1.55%
O=c1[nH]c2cc3c(cc2cc1CN(CCCO)C(=S)NCc1ccco1)OCO3 | 3.28%
CCc1ccc(NS(=O)(=O)c2cccc3nsnc23)cc1 | 15.6%
COc1ccc(N2CCN(S(=O)(=O)CCNC(=O)c3ccc(Br)o3)CC2)cc1 | 15.1%
N#CC1=C(Nc2ccccc2)SC=C(c2ccc(Br)cc2)N=C1N1CCOCC1 | -12.4%
Cc1nc(C)c(-c2ccc(SCc3cccc(F)c3)nn2)s1 | 3.24%
COc1cc2c(cc1NC(=O)COC(=O)CNS(=O)(=O)c1ccc(C)cc1)oc1ccccc12 | 3.5%
Cc1ccccc1OCc1nnc(SCc2cc(=O)[nH]c3ccccc23)o1 | 11.1%
CC(=O)c1c(N2CCN(Cc3ccccc3)CC2)[nH]c(-c2ccccc2)nc1=S | 0.636%
CN(C)c1ccc(C(=O)OCC(=O)NCCCc2ccccc2)cc1 | 9.86%
CC(C)(C)C1CCc2c(sc3ncn(N)c(=N)c23)C1 (stereo not shown) | -5.75%

SMILES | hERG current change (%, negative = inhibition) at 1uM
COc1ccc(N2C(=S)NC3CS(=O)(=O)CC32)cc1 (stereo not shown) | 13.5%
CN(C)CCCSc1nc2ccccc2s1.Cl | 14.1%
CCCCc1ccc(NS(=O)(=O)c2cccc(C(=O)N3CCCN(C)CC3)c2)cc1 | 0.134%
Oc1ccc(CNc2ccccc2)c2cccnc12 | 17.5%
O=C(CCC(=O)c1ccc(F)cc1)Nc1cc(Cl)cc(Cl)c1 | 14.6%
CCc1cc(=O)oc2cc(C)cc(OCC(=O)NCc3ccncc3)c12 | -8.01%
O=C1C2CC=CCC2C(=O)N1c1n[nH]c(CCc2ccccc2)n1 (stereo not shown) | 4.37%
Cc1nn(-c2ccccc2)c(Cl)c1/C=N/NC(=O)OC(C)(C)C | 16.2%
COc1ccc(CNC(=O)CCSc2ccc(F)cc2)cc1OC | 8.33%
CCC(=NCc1cccnc1)c1c(O)n(-c2ccccc2C)c(=O)[nH]c1=O | 11.9%
COc1ccc(Oc2c(C)nc(SCC(=O)c3ccc(Cl)cc3)[nH]c2=O)cc1 | 13.8%
Cc1ccc(OCC(=O)NC2=NCCS2)cc1 | 12.2%
O=C(CCl)Nc1ccc(-c2ccccc2)cc1 | 13.7%
Cc1nn(C)c(C)c1S(=O)(=O)N(CC(=O)NCCCN1CCC(C)CC1)c1ccc(C(C)C)cc1 | -19.5%
Cc1ccc(C)c(N2CCN(S(=O)(=O)c3ccc4[nH]c(=O)ccc4c3)CC2)c1 | 9.9%
Cc1c(NC(=O)c2cc(-n3cnnc3)ccc2Cl)cccc1-c1nc2ccccc2s1 | -9.7%
COc1ccc(CNc2ncnc(N)n2)cc1.Cl | -1.41%
CCOC(=O)c1ccc(NC(=O)NC(C)C2CCCO2)cc1 (stereo not shown) | -4.93%
CC(C)CCP(=O)(O)c1ccccc1 | 5.55%
O=C(O)CC1(CC(=O)Nc2ccccc2C(=O)c2ccccc2)CCCC1 | 11%
O=C([O-])CCSc1ccc2ccccc2n1.[Na+] | 17%
Cn1nnnc1SCc1nc2scc(-c3ccc(Cl)cc3)c2c(=O)[nH]1 | -2.22%

SMILES | hERG current change (%, negative = inhibition) at 1uM
O=C(Oc1ccccc1F)C1CCN(C(=O)c2ccc(F)cc2)CC1 | 11%
Cc1cc(NC(=O)CCCC(=O)N(CC(=O)NCCc2ccccc2)Cc2ccc(F)cc2)no1 | -16.9%
O=C(CSc1nnc(C2COc3ccccc3O2)o1)N1CCCCC1 (stereo not shown) | 4.89%
CC(C)(C)c1ccc(C(=O)Cn2nc(C(=O)O)c3ccccc3c2=O)cc1 | 8.77%
Cl.NCCCCCC(=O)Nc1ccncc1 | 15.9%
O=S(=O)(c1ccc(F)c(F)c1)N1CCN(CCc2ccccc2)CC1 | 15.5%
COc1cccc(OCCOCCN(C)CCO)c1 | 9.94%
COc1ccc(CNC(=O)C/C(C)=N/NC(=O)COc2cccc(C)c2)cc1 | 2.27%
COc1cc(/C=N/NC(=O)C23CC4CC(CC(C4)C2)C3)cc(Br)c1O | 2.46%
Cc1cc(NS(=O)(=O)c2ccc(NC(=O)Cc3ccccc3)cc2)nc(C)n1 | 8.3%
CCOC(=O)C1=C(N)OC2=C(C(=O)CC(C)(C)C2)C1c1ccccc1OC (stereo not shown) | 10.9%
CCCNS(=O)(=O)c1ccc(C(=O)NCC2CCCO2)cc1 (stereo not shown) | 3.04%
COc1cccc(NC(=O)CN(C)C(=O)c2cccc(S(=O)(=O)Nc3ccc(C)cc3)c2)c1 | 9.89%
COC(=O)c1ccc(Nc2ncnc3sccc23)cc1 | 8.08%
COC(=O)C(C)Sc1nc2c(c(=O)n1-c1ccccc1)SCC2 (stereo not shown) | 0.505%
CCOc1ccc(NC(=O)C[n+]2ccc(N(C)C)cc2)cc1.[Cl-] | 19.9%
CCOC(=O)[C@@H]1[C@H]2COc3cc(OC)ccc3[C@@H]2N2C(=O)N(c3cccc(F)c3)C(=O)[C@@]12C | 13.7%
COc1ccc(OCCN2C(=O)c3ccccc3C2=O)cc1 | 6.71%
Cc1nn(-c2cccc(Cl)c2)c2c1C(c1ccncc1)C(C#N)=C(N)O2 (stereo not shown) | 5.94%
Cc1nn(-c2ccccc2)c(N)c1N=Nc1cccnc1 | 8.71%
COc1ccc(C2c3[nH]c4ccccc4c3C[C@H]3C(=O)N(C4CCN(Cc5ccccc5)CC4)CC(=O)N23)c(OC)c1 (stereo partly shown) | 11.4%
COc1ccc(NS(=O)(=O)c2cccc(C(=O)NNC(=O)c3cccc(NC(C)=O)c3)c2)cc1 | 15.5%
